According to the supplement of paper PMC11417369:
± gives the standard deviation of the averaged measurements. The list shows a part of the results.

system: PfAP2-G AP2 domain (GST-tagged); assay: gcPBM binding intensity (ln(normalized median fluorescence intensity)); higher = stronger DNA binding
Method in brief: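 Using an Agilent 4 × 180k array, primer-extended double-stranded 36-bp intergenic genomic probes and negative controls were exposed for 1 h to GST-fused P. falciparum DNA-binding domains expressed in E. coli. Binding was carried out in 1× PBS with 1% milk, 0.2 mg/ml BSA, 0.5% salmon testes DNA and 0.03% Triton X-100, and protein was detected with Alexa488 anti-GST antibody and a 488 nm scan. Binding intensity is the highest Masliner-normalised natural-log median intensity across replicate spots of either probe orientation.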

Row | Sequence | gcPBM binding intensity (ln)
1 | ACCTTTGATATATACACACACATAAAAAAAATATAT [CACACA_site6952] | 10.3 ± 0.33
2 | TTCTTTTTCCAATTTGCACACCACAAAATTATATAT [CACACA_site2909] | 10.5 ± 0.28
3 | ATATTTCATCTAGCTACACACATATAACAAATTACT [CACACA_site7843] | 10.06 ± 0.049
4 | TACATAAAAATATCACGTACATATAATCATATACTA [XGTACX_site3505] | 11.2 ± 0.69
5 | ATGTTGTCAAAAAAATGTACTTACATAATATTTTCC [XGTACX_site1732] | 11.1 ± 0.71
6 | AGAAGTCTGTAATGATGTACTGGAAAAATATAAATA [XGTACX_site8148] | 10.8 ± 0.64
7 | TAGATCTTATTTACAAGTACATATATACGATTCATT [XGTACX_site7578] | 11.2 ± 0.81
8 | ATCTAATATATATTCTGTACGTAATTAAAACCACAA [XGTACX_site3152] | 11.5 ± 0.91
9 | CGCATACACCAACACACACACACATATATATATATA [CACACA_site635] | 10.4 ± 0.59
10 | TATAAATACTTATATGTACACACATATAGATATATA [CACACA_site8819] | 11.3 ± 0.88
11 | TTTTTTTTTTAAAAAACACACACCTAAACAAGATAT [CACACA_site875] | 10.5 ± 0.36
12 | TATAATTGTCTTCACACACACATATATATATATATA [CACACA_site2743] | 10.3 ± 0.42
13 | AAAATAAAAAAAAAAGGTACACAAAAAGATGGACTG [XGTACX_site2650] | 11.4 ± 0.81
14 | ATATATATATATATTTGTACATATATATAATTTTTC [XGTACX_site7460] | 10.9 ± 0.7
15 | ATTTGGCATGGACACACACACACACCGACAGACATA [CACACA_site4491] | 10.8 ± 0.44
16 | TTATATTATGGACACACACACAAAAAAAAAAAAAAA [CACACA_site7744] | 11.1 ± 0.9
17 | TTGTTTTTAGTTTATACACACCATATTAATATAATG [CACACA_site7452] | 10.3 ± 0.16
18 | AAATTAATTAAATATACACACATATATAAATATATA [CACACA_site391] | 9.9 ± 0.31
19 | ATATATATATAAAGTTGTACATTTTTTATTTTTTCA [XGTACX_site7847] | 11.2 ± 0.72
20 | TTAAAACCAAAACACAGTACATATATATATATATAT [XGTACX_site5668] | 10.7 ± 0.5
21 | AAAATATATTATATATGTACATATTACGTTTTAATT [XGTACX_site2518] | 11.1 ± 0.6
22 | CAATTTTAAGTAATCAATTTTTTTAAAAAACACAAA [CACACA_negctrl_site961] | 10.1 ± 0.21

Row | Sequence | gcPBM binding intensity (ln)
23 | TATATATATATGTATACACACATATGTATGTTATGT [CACACA_site4053] | 10.3 ± 0.16
24 | GCATAATATACTCTTACACACCATTTCTATATACAT [CACACA_site6799] | 10.3 ± 0.17
25 | TTTGTTAATTATAAATGTACATATTATATATATATA [XGTACX_site8870] | 11.1 ± 0.62
26 | CTTGTATTTAAACACACACACACTTTCTTTTTTTAA [CACACA_site5133] | 10.05 ± 0.071
27 | AAAAATAAAGGGCGAAAAAAAAAAAAAAAAAAAAAA [GTGCAC_negctrl_site671] | 9.88 ± 0.33
28 | TTAATATTAATATATTGTACATATATGCACATATTT [XGTACX_site6569] | 10.9 ± 0.67
29 | AATATTATAATATAAACACACAAAATTCAATTATAT [CACACA_site3789] | 9.995 ± 0.049
30 | AACGTTCATATTTCCACACACAAAAAATAAATATAA [CACACA_site3344] | 10.2 ± 0.34
31 | TTTTTTATGAACACGTCACACATCATTAAAATGTTT [CACACA_site5934] | 10.2 ± 0.2
32 | TTTAATATTTTTCAATGTAGAAAGTTTGTCTGTTAT [CACACA_negctrl_site973] | 9.93 ± 0.16
33 | AGTTATAAACATATGTGTACTTATAAAAACATATAG [XGTACX_site3268] | 11.6 ± 0.77
34 | TCACACATATATTCATGTACATATTAATATTTCCAT [XGTACX_site5387] | 11.1 ± 0.54
35 | TTGACACGTATATGCACACACCCGTAAGTGTCCATT [CACACA_site2764] | 10.5 ± 0.28
36 | ATATTTTATTATTGTTGTACTTTTTTTTGATTGTTT [XGTACX_site4090] | 11.4 ± 0.73
37 | TTTCCTATTTAATATAGTACATAAGAAATAATTTTA [XGTACX_site5952] | 10.9 ± 0.73
38 | TTGATGATATAAAAAAGTACTTATATTATATTATAT [XGTACX_site6492] | 11.3 ± 0.67
39 | TTTTGTAAAAAAAAAAAAAAAGGAAAATTAAAATAA [CACACA_negctrl_site803] | 9.685 ± 0.021
40 | ACATATTTTTAATACACACTCAAAAAAGTACTTAAC [CACACA_site3014] | 11.5 ± 0.88
41 | TATGAAATTTTAATTACACACAGGAAAATAAAATGG [CACACA_site4935] | 10.2 ± 0.16
42 | TAAAAAAAATATTTTTGTACGAATTAAATTTTTTTT [XGTACX_site4838] | 10.7 ± 0.32
43 | TACATATATATTATATGTACTTATATTTTTATAATA [XGTACX_site3452] | 11.4 ± 0.71
44 | ATATACATATCCATATTTATATCTATATTTAAAACA [CACACA_negctrl_site747] | 9.715 ± 0.007
